# Test results taken from article PMC4336329 (PLoS ONE, 2015).
# The whole screen tested about 310,000 compounds, of which about 14,000 (4.5%) showed an effect of 50% or more. The effect is printed as a negative number. This is one part of the list.
# Target: human ether-à-go-go-related gene (hERG) potassium channel (human, UniProt Q12809)
# Assay: primary screen, population patch clamp on CHO cells stably expressing hERG
# 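Further: peak tail current of the secondary pulse compared with the same well before compound.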
# Sequence of human ether-à-go-go-related gene (hERG) potassium channel (Q12809 whole entry, looked up): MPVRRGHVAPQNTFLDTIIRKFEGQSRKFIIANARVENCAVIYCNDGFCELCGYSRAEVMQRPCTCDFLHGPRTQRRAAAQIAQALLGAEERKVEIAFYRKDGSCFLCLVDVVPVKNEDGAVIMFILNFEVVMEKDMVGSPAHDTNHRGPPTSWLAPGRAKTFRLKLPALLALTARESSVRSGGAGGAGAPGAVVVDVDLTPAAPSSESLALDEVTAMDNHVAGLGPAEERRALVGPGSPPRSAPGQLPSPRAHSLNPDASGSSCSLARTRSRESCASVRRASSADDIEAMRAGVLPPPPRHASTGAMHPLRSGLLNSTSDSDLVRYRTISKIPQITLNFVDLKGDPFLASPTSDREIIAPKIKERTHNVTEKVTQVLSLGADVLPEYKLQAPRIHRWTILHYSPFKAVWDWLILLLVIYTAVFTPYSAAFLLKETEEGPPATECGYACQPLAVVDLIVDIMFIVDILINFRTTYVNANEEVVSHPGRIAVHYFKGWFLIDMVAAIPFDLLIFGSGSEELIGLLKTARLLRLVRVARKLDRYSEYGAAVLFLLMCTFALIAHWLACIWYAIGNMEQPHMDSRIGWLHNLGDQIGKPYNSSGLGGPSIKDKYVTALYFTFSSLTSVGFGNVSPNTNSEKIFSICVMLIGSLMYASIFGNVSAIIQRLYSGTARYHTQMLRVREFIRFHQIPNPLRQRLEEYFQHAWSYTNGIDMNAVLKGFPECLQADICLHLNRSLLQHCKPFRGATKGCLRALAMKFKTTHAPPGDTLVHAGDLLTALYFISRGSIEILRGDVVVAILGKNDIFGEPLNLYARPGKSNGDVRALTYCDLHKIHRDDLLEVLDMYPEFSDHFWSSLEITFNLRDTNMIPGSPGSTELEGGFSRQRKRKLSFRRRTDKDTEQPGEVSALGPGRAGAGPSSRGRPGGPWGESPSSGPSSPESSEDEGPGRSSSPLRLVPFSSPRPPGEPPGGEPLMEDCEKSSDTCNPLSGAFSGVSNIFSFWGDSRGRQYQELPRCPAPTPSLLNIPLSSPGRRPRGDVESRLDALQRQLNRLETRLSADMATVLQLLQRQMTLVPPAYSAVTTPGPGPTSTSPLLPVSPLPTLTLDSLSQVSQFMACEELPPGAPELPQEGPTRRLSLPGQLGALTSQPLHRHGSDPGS
row,SMILES,"hERG current change (%, negative = inhibition) at 10uM [%]"
1,CCC1CCCCN1C(=O)CSc1nnc(CNC(=O)c2cc(OC)c(OC)c(OC)c2)o1 (centres unmarked),6.43
2,O=c1c2cn[nH]c2nc(SCc2cc(=O)n3cc(Br)ccc3n2)n1-c1ccc(Br)cc1,-24.8
3,O=C(CCCn1c(=O)[nH]c2ccsc2c1=O)NC1CCCCC1,18.6
4,COc1ccc(C2(CNS(=O)(=O)c3ccc(C)cc3)CCOCC2)cc1,15.4
5,CSc1ccc(/C=c2\s/c(=C\C(=O)C(C)(C)C)n(CC(=O)NCCC3=CCCCC3)c2=O)cc1,-8.94
6,O=C(c1ccco1)N1CCN(Cc2cc(=O)oc3cc(O)ccc23)CC1,-69.3
7,Cc1nc2ccc(Br)cc2c2c1CC(CO)O2 (centres unmarked),-20.1
8,COC(=O)c1ccc(CNC(=O)C2CCC(=O)N(Cc3cccc(F)c3)C2)cc1 (centres unmarked),-12.7
9,COc1ccc(NC(=O)c2cc(C)on2)cc1OC,-0.652
10,COc1cc(C(=O)NC(=S)Nc2ccc([N+](=O)[O-])cc2)cc(OC)c1OC,1.26
11,Cc1cc(C)n(-c2nc3ccccc3s2)n1,-8.34
12,COC(=O)C1=CN(c2cccc(C(F)(F)F)c2)C=C(C(=O)OC)C1c1ccc(O)c(OC)c1,6.18
13,O=S(=O)(Cc1ccccc1)N1CCCCC1,14.1
14,COc1cc(=O)[nH]c(=O)n1CC(=O)c1ccccc1,4.43
15,Cc1ccc(-c2c3c(=O)n(C)c(=O)n(C)c3cn2Cc2cccnc2)cc1,-13.8
16,CCC(C)c1ccccc1NC(=O)C1CCCO1 (centres unmarked),15
17,C=CCOC(=O)C1=C[C@H](c2coc3ccccc3c2=O)C[C@H](OCc2ccc(CO)cc2)O1,-62.3
18,O=[N+]([O-])c1cc(C(F)(F)F)ccc1Oc1cccnc1[N+](=O)[O-],-7.06
19,CCCCC(=O)Nc1ncc([N+](=O)[O-])s1,0.395
20,COc1ccccc1C(=O)NC(=O)COC(=O)c1cccc(C)c1O,16.3
21,CCOCCOC(=O)c1ccc(-n2cncn2)nc1,1.72
22,CCOC(=O)C(NC(C)=O)C(=O)Nc1ccc(C(C)(C)C)cc1 (centres unmarked),6.04

row,SMILES,"hERG current change (%, negative = inhibition) at 10uM [%]"
1,COc1ccc(CC(=O)OCC(=O)c2ccc(OC)c(OC)c2)cc1,-10
2,Cc1ccc(C(=O)NCCNC(=O)c2ccc(F)cc2)cn1,6.18
3,Cc1ccc2c(CN(C)Cc3cccc(F)c3)cc(=O)oc2c1C,12.4
4,O=C1c2ccccc2C(=O)N1CCN1CCOCC1,17
5,O=C(OCCN1C(=O)c2ccccc2C1=O)c1ccccc1,4.41
6,CCOc1ccc(N2C=Nc3ccc(OCC)cc3C2)cc1,-63.9
7,Oc1c(C(c2cccs2)N2CCOCC2)sc2ncnn12 (centres unmarked),8.08
8,CS(=O)(=O)Nc1ccc(-c2ccc(/C=C3\SC(N)=NC3=O)o2)cc1,15.5
9,CC(=O)c1ccc(NC(=O)C(C)OC(=O)COc2ccc(C#N)cc2)cc1 (centres unmarked),-33
10,COc1ccc(NC(=O)C(=O)NCCC2CCCCN2S(=O)(=O)c2cccs2)cc1 (centres unmarked),-16.5
11,COc1ccc(-c2csc3ncnc(N4CCN(c5ccccc5O)CC4)c23)cc1,9.28
12,COc1cnn(-c2ccccc2)c(=O)c1N(C)C,4.42
13,C=CCN(C(=O)CCC(=O)Nc1cc(C)on1)C(C(=O)NC1CCCC1)c1cccnc1 (centres unmarked),8.16
14,CC(=O)c1ccc(NC(=O)CCCCCn2nnc3ccccc3c2=O)cc1,-2.46
15,Cn1c(SCC(=O)Nc2cccc(F)c2)nnc1-c1cc2ccccc2o1,5.55
16,Cc1nnc(SCC(=O)Nc2nc(-c3ccc(F)cc3)cs2)[nH]c1=O,-1.09
17,O=C(CSc1nnc(-c2c[nH]c3ccccc23)o1)c1ccccc1,-1.72
18,CC(Sc1nc2ccccc2c(=O)n1CC1CCCO1)C(=O)N(C)Cc1ccccc1 (centres unmarked),-59.8
19,CN(C(=O)c1ccco1)c1nc(-c2ccc(Cl)cc2)cs1,8.09
20,COCCNC(=O)C(C)N(c1ccc(OC)cc1)S(C)(=O)=O (centres unmarked),3.69
21,CSc1ccc(/C=C/C(=O)c2ccc(NC(=O)C(C)C)cc2)cc1,14.4
22,COc1cc(/C=C2/SC(=S)N(Cc3ccccc3)C2=O)cc(OC)c1O,18
